Several values for one entry are separate records, joined by “and”; a condition that tells them apart may be missing. Identical values can stand only once.
Tests used:
[1] = target: Cathepsin L (Homo sapiens, UniProt P07711); test: Cathepsin L kinetic assay; details: for Ki: initial reversible binding, regressed from progress curves, 10 μM Z-FR-AMC
[2] = tested on: C2C12 mouse myoblasts; test: Host cell cytotoxicity in T. cruzi assay
[3] = tested on: T. cruzi CA-I/72 intracellular amastigote; test: Cell-based intracellular T. cruzi amastigote assay; details: intracellular amastigotes in C2C12 cells, 72 h

Compound | kinact/KI [1] | Ki ([1]; Ki) | Ki [1] | further results
CC[C@H](C)[C@@H](C(=O)O[C@@H](CC(C)C)C(=O)N[C@@H](CC(C)C)C(=O)N[C@H](/C=C/C(=O)N1C(=O)C=C(OC)[C@H]1Cc1ccccc1)Cc1ccccc1)N(C)C [compound 12, (S)-1-(((S)-1-(((S,E)-5-((R)-2-Benzyl-3-methoxy-5-oxo-2,5-dihydro-1H-pyrrol-1-yl)-5-oxo-1-phenylpent-3-en-2-yl)amino)-4-methyl-1-oxopentan-2-yl)amino)-4-methyl-1-oxopentan-2-yl dimethyl-L-isoleucinate] | 1.03e+06 M⁻¹ s⁻¹ | – | – | –
CC[C@H](C)[C@@H](C(=O)O[C@@H](CC(C)C)C(=O)N[C@@H](CC(C)C)C(=O)N[C@H](/C=C/C(=O)N1C(=O)C=C(OC)[C@@H]1Cc1ccccc1)Cc1ccccc1)N(C)C [compound 8, (S)-1-(((S)-1-(((S,E)-5-((S)-2-Benzyl-3-methoxy-5-oxo-2,5-dihydro-1H-pyrrol-1-yl)-5-oxo-1-phenylpent-3-en-2-yl)amino)-4-methyl-1-oxopentan-2-yl)amino)-4-methyl-1-oxopentan-2-yl dimethyl-L-isoleucinate] | 719000 M⁻¹ s⁻¹ | – | – | –
CC[C@H](C)[C@@H](C(=O)O[C@@H](CC(C)C)C(=O)N[C@@H](CC(C)C)C(=O)N[C@@H](C)/C=C/C(=O)N1C(=O)C=C(OC)[C@@H]1CC(C)C)N(C)C [compound 5, (S)-1-(((S)-1-(((S,E)-5-((S)-2-Isobutyl-3-methoxy-5-oxo-2,5-dihydro-1H-pyrrol-1-yl)-5-oxopent-3-en-2-yl)amino)-4-methyl-1-oxopentan-2-yl)amino)-4-methyl-1-oxopentan-2-yl dimethyl-L-isoleucinate] | – | – | – | highest concentration without toxicity to host cells ([2]; murine host cells): > 10 µM; activity to the host cell ([2]; stated in abstract): relatively inactive; IC50 (antiparasitic activity) [3]: single digit nanomolar
CC[C@H](C)[C@@H](C(=O)O[C@@H](CC(C)C)C(=O)N[C@@H](CC(C)C)C(=O)N[C@H](/C=C/C(=O)N1C(=O)C=C(OC)[C@@H]1CC(C)C)Cc1ccccc1)N(C)C [compound 10, (S)-1-(((S)-1-(((S,E)-5-((S)-2-Isobutyl-3-methoxy-5-oxo-2,5-dihydro-1H-pyrrol-1-yl)-5-oxo-1-phenylpent-3-en-2-yl)amino)-4-methyl-1-oxopentan-2-yl)amino)-4-methyl-1-oxopentan-2-yl dimethyl-L-isoleucinate] | – | 0.0937 nM and 0.094 nM | sub-nanomolar | –
COC1=CC(=O)N(C(=O)/C=C/[C@H](Cc2ccccc2)NC(=O)[C@H](CC(C)C)NC(=O)[C@H](CC(C)C)OC(=O)[C@H](C(C)C)N(C)C)[C@H]1CC(C)C [compound 11, (S)-1-(((S)-1-(((S,E)-5-((S)-2-Isobutyl-3-methoxy-5-oxo-2,5-dihydro-1H-pyrrol-1-yl)-5-oxo-1-phenylpent-3-en-2-yl)amino)-4-methyl-1-oxopentan-2-yl)amino)-4-methyl-1-oxopentan-2-yl dimethyl-L-valinate] | – | – | sub-nanomolar | –
CC[C@H](C)[C@@H](C(=O)O[C@@H](CC(C)C)C(=O)N[C@@H](CC(C)C)C(=O)N[C@@H](C)/C=C/C(=O)N1C(=O)C=C(OC)[C@@H]1C)N(C)C [compound 1, Gallinamide A] | 901000 M⁻¹ s⁻¹ | 4.67 ± 0.4 nM | – | –

Source: article PMC7240701 (Journal of medicinal chemistry, 2019)
